Screen size: about 310,000 compounds; about 2,200 (0.71%) showed an effect of 50% or more. The effect is printed as a negative number. The list shows a part of the results.
Each molecule was assayed against human ether-à-go-go-related gene (hERG) potassium channel (human, UniProt Q12809) (assay: primary screen, population patch clamp on CHO cells stably expressing hERG).
Chain of human ether-à-go-go-related gene (hERG) potassium channel (Q12809 whole entry, looked up): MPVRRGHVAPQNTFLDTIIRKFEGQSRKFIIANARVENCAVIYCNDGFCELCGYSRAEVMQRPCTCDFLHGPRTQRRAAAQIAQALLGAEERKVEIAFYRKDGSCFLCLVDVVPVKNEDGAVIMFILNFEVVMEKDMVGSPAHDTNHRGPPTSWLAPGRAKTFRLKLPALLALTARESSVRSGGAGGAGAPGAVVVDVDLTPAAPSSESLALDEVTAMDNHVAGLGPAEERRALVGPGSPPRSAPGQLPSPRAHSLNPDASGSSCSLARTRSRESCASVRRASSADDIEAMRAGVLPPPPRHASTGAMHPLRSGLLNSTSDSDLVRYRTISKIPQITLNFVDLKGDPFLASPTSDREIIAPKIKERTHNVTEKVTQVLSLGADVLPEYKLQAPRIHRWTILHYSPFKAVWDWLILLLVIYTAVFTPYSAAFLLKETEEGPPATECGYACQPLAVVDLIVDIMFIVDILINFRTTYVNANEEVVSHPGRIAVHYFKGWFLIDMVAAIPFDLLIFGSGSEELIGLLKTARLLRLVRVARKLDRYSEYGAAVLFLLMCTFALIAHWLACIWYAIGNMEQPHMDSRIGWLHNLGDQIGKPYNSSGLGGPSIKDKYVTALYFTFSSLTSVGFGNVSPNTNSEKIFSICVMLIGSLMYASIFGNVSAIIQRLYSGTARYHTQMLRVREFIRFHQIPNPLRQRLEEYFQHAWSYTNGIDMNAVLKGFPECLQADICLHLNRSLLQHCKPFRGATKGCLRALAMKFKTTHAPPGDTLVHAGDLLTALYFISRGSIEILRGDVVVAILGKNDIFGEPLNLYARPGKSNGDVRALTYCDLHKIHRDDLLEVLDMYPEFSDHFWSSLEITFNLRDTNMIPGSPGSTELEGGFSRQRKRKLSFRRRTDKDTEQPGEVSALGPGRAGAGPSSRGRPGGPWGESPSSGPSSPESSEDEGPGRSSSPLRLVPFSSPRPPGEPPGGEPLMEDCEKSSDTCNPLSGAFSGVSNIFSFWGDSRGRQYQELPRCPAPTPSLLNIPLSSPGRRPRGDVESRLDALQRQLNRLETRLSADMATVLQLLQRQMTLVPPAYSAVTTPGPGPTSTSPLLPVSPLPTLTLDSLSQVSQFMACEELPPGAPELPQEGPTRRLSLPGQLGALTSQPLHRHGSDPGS

Structure (SMILES) | hERG current change (%, negative = inhibition) at 1uM
C1=CCC(CN2CCNCC2)CC1.O=C(O)C(F)(F)F (stereo not drawn) | 12.6%
Cc1ccc(NC(=O)CSCc2n[nH]c(=O)[nH]2)c(Br)c1 | 12.4%
COCc1cc(C)nc(SCC(=O)Nc2ccc3c(c2)OCCO3)c1C#N | 12.3%
CNC(=O)/C(C#N)=C/c1c(N2CCCCCC2)nc2ccccn2c1=O | 16.2%
Cc1nc2oc3ccccc3c(=O)c2c(=O)n1Cc1ccccc1 | 5.34%
CCc1nc(SCC(=O)Nc2ccc(Br)cn2)n[nH]1 | 13%
CCc1c(C(=O)NNC(=O)Nc2ccc3c(c2)OCO3)csc1C | 0.0107%
CCOc1c2ccc(C(=O)NCCCCc3ccccc3)cc2nn1CC | 6.47%
N#Cc1ccccc1NC(=O)c1cc(=O)c2ccccc2o1 | 7.47%
C[N+]1(C)CC2=Cc3ccccc3CC2C1.[I-] (stereo not drawn) | 14.3%
CC(C)(C)C(=O)Nc1nnc(COc2ccc(Cl)cc2)s1 | -10.4%
O=C(CS(=O)(=O)c1c[nH]c2ccccc12)NC1CCCCC1 | 13.7%
CCN(CC)C1CC(=O)N(c2ccc(Br)cc2)C1=O (stereo not drawn) | 15.4%
CCC(C)NC(=O)C1c2ccccc2C(=O)N(c2ccc(OC)cc2)C1c1ccc(OC)cc1 (stereo not drawn) | 10.6%
Cc1ccc(-c2ccc(/C=N/n3cnnc3)o2)cc1 | 13.8%
CCOc1ccccc1NC(=O)c1ccc(F)c(S(=O)(=O)N2CCC3(CC2)OCCO3)c1 | -7.51%
CCC(=O)Nc1ccc(NCc2ccc(-c3ccccc3)cc2)cc1 | 13.5%
COc1ccc(CCNc2nc(-c3ccco3)cc(C(F)(F)F)n2)cc1OC | 11.8%
CC(=O)Nc1n[nH]c(-c2ccc(C)cc2)c1C | -6.17%
CCCCn1c(CN(C)Cc2ccccc2)nc2c1c(=O)n(C)c(=O)n2C | -11.2%
COc1ccccc1C(C)NC(=O)Cc1ccc(S(=O)(=O)N2CCOCC2)s1 (stereo not drawn) | 10.2%
Cc1ccc(N2CC(C(=O)Nc3ccc(S(=O)(=O)Nc4nccs4)cc3)CC2=O)cc1C (stereo not drawn) | 11.5%
Cc1ccc(SC[C@H](c2ccccc2)N2CCN(CCc3ccccc3)CCC2=O)cc1 | -10.2%

Structure (SMILES) | hERG current change (%, negative = inhibition) at 1uM
O=C(NCN1CCN(c2ccccn2)CC1)c1cnccn1 | 3.35%
Cc1sc2ncnc(Sc3ccccc3C(=O)Nc3ccc(Br)cc3)c2c1C | 5.01%
CC(=O)N1CCc2cc(S(=O)(=O)CCC(=O)Nc3cccc(F)c3)ccc21 | 18.1%
CCSc1nc2sc3c(c2c(=O)[nH]1)CC(C)(CC)OC3 (stereo not drawn) | 18.7%
NC(=O)NOCc1ccccc1 | 5.95%
CCn1c(SCC(=O)N2CCOCC2)nc(O)cc1=O | 18.1%
CC(=O)Nc1ccc(C(=O)Nc2ccc(S(=O)(=O)N3CCCC3)cc2)cc1 | 13.1%
CCOc1ccc(NS(=O)(=O)c2ccc(-c3ccc(=O)[nH]n3)o2)cc1 | 10.9%
CCOC(=O)c1ccc(NC(=O)C2C3C=CC(C3)C2C(=O)O)cc1 (stereo not drawn) | 11.7%
COc1cc(/C=C/c2cccc[n+]2C)ccc1OCC(=O)Nc1ccccc1C.[I-] | 12.5%
C=CCn1c(SCC(=O)NC2CCS(=O)(=O)C2)nnc1-c1ccncc1 (stereo not drawn) | 11.8%
O=C(CN1CCN(S(=O)(=O)N2CCCCCC2)CC1)Nc1ccc(Br)cc1 | -3.27%
COc1cc(NC(=O)C2CCC(CNc3c(N4CCC(C)CC4)c(=O)c3=O)CC2)cc(OC)c1 (stereo not drawn) | 19.1%
COc1cc2c(-c3ccccc3)c(C)oc2cc1/C=N/NC(N)=S | 12.6%
CCc1nnc(NS(=O)(=O)c2ccc(N=Cc3c(O)n(-c4ccc(Cl)cc4)c(=O)[nH]c3=O)cc2)s1 | 1.63%
O=C(c1ccc2c(c1)OCO2)N1CCCN(C(=O)c2ccc3c(c2)OCO3)CC1 | 12.7%
Nc1c(C(=O)Nc2ccccc2)c2nc3ccccc3nc2n1CCCN1CCOCC1 | 11.9%
CCCCCC1CC(CC(=O)NC(=S)Nc2ccc([N+](=O)[O-])cc2)C(=O)O1 (stereo not drawn) | 3.85%
COc1ccc(CNC(=O)C2CCCN(S(=O)(=O)c3cnc[nH]3)C2)cc1 (stereo not drawn) | 13.6%
CCCc1cnc(N2CCN(S(C)(=O)=O)CC2)nc1 | 9.78%
COc1ccc(-n2c(COc3ccc(C)cc3)n[nH]c2=S)cc1 | 10.5%
C=CCOC(=O)C1=C(C)NC(=O)NC1c1cc2c(cc1Br)OCO2 (stereo not drawn) | 3.81%

— paper PMC4336329 (PLoS ONE, 2015)
